Source: PubChem BioAssay AID463173 (ICCB-Longwood Screening Facility, Harvard Medical School, 2010)
Out of some 52,000 compounds screened, about 1,700 (3.3%) were called active. Cut-off read from the data, not from the text of the source: active = survival mostly below about 52% (no sharp cut-off); inactive = mostly above about 56%. This is one part of the list.

What follows are molecules tested on Wild type (assay: growth inhibition of S. aureus wild type versus tarO mutant, primary screen, teichoic acid synthesis inhibitors, RN4220, OD600 (AID 463173)). Details: S. aureus RN4220 wild type/DeltatarO growth, OD600, 18 h, active compounds read low, screened at 18.75 µg/mL (by protocol).
`O=C(CSc1nnc(Cc2ccccc2)n1Cc1ccccc1)NCc1ccco1` was tested, and the survival was inactive: 100%. In the case of `COc1cccc(-n2cc(C(=O)Nc3ccccc3C(N)=O)c3ccccc3c2=O)c1`, the survival is reported as inactive: 80%. `Cc1nc(SCCOc2ccc(Cl)cc2)[nH]c(=O)c1Cc1ccccc1` was tested, and the survival was inactive: 84%. For `CC(C)(C)c1ccc(S(=O)(=O)N2CCC(c3ccncc3)CC2)cc1`, the survival was inactive: 120%. `CCOc1ccc(NC(=O)Cn2c(=O)n(Cc3ccccc3)c(=O)c3c4c(sc32)CN(C(C)=O)CC4)cc1` was tested, and the survival was inactive: 88%. `O=C(Nc1cccnc1)C1CC(c2ccccc2O)=NO1` (stereo not drawn) was tested, and the survival was inactive: 120%. For `Cc1ccc(NC(=O)CN2C(=O)COc3ccc(S(=O)(=O)N4CCOCC4)cc32)c(Cl)c1`, the survival was inactive: 98%. `O=C(c1cccc([N+](=O)[O-])c1)N1CCN(CCc2ccncc2)CC1` was tested, and the survival was inactive: 81%. `CCOc1ccccc1NC(=O)c1nn(-c2ccc(OC)cc2)c(=O)c2c1c1ccccc1n2C` was tested, and the survival was inactive: 91%. In the case of `COc1ccc(OC)c(CNC(=O)CCC(=O)N2Cc3ccccc3Oc3ncccc32)c1`, the survival is reported as inactive: 118%. With `COc1ccc2nc(NC(=O)c3nc(SCc4cccc(C)c4)ncc3Cl)sc2c1` the survival was inactive: 81%. `COc1ccc(N2CC(NC(=O)C3CCCC3)CC2=O)cc1` (stereo not drawn) was tested, and the survival was inactive: 82%. In the case of `COc1ccccc1NC(=O)C1=C(C)Nc2ncnn2C1c1sccc1C` (stereo not drawn), the survival is reported as inactive: 73%. `Cc1ccccc1CNC(=O)Cn1cc2c(n1)-c1c(oc(C(=O)N3CCCC3)c1C)CC2` was tested, and the survival was inactive: 109%. With `O=C(O)c1csc2c1CCCC2` the survival was inactive: 115%. In the case of `Cc1cccc(C(=O)Nc2sc3c(c2C(=O)O)CCCC3)c1`, the survival is reported as inactive: 40%. In the case of `Cc1cc(C)cc(NC(=O)CN(C)S(=O)(=O)c2ccc3c(c2)CCC(=O)N3)c1`, the survival is reported as inactive: 91%. For `COc1ccc(N(CC(=O)N2CCN(c3ccc(F)cc3)CC2)S(=O)(=O)c2c(C)nn(C)c2C)cc1`, the survival was inactive: 80%. With `CC(=O)c1c(C)oc2ccc(N(C(=O)c3ccncc3)S(=O)(=O)c3ccc(F)cc3C)cc12` the survival was inactive: 137%. `CCOc1ccc(OCC)c(NC(=O)CSc2nc3c(c(=O)n(C)c(=O)n3C)n2C(C)C)c1` was tested, and the survival was inactive: 99%. For `COc1cc(Cl)c(NC(=O)CN(C)S(=O)(=O)c2ccc3[nH]c4c(c3c2)CCCC4)c(OC)c1`, the survival was inactive: 80%. With `CCCOc1ccc(CNC(=O)Cn2c(=O)oc3ccccc32)cc1` the survival was inactive: 66%. `COc1cccc(CNC(=O)c2cccc(NC(=O)c3nsc4ccccc34)c2)c1` was tested, and the survival was inactive: 67%. `COc1ccc(NS(=O)(=O)c2ccc3c(c2)n(C)c(=O)c(=O)n3C)cc1Cl` was tested, and the survival was inactive: 77%. For `CCOC(=O)C(CC)Sc1nnc2[nH]c(=O)cc(C)n12` (stereo not drawn), the survival was inactive: 64%. With `COc1cccc(CNC(=O)CC(c2ccc(C)cc2)N2Cc3ccccc3C2=O)c1` (stereo not drawn) the survival was inactive: 71%. For `Cc1ccc(CNC(=O)c2cnn(-c3ccc(F)cc3F)c2C2CCN(C(=O)OC(C)(C)C)CC2)cc1`, the survival was inactive: 69%. For `CCCOc1ccc(C2C(=O)N(C3CCCCC3)CC(=O)N2CCC2=CCCCC2)cc1OC` (stereo not drawn), the survival was inactive: 78%. For `COc1cccc(CNC(=O)CCS(=O)(=O)c2cc3c4c(c2)CCN4C(=O)CC3)c1`, the survival was inactive: 54%. For `O=C(CSc1n[nH]c(-c2ccccc2)n1)NCCc1ccccc1`, the survival was inactive: 77%. `COc1cc(-c2nc3cnccn3c2Nc2ccc(C(C)C)cc2)ccc1O` was tested, and the survival was inactive: 77%. In the case of `COc1ccccc1-c1ccnc2c(-c3ccc(Br)cc3)c(C)nn12`, the survival is reported as inactive: 77%. With `CCc1ccc(Cn2c(CNS(=O)(=O)c3ccc(Cl)s3)nc3cccnc32)cc1` the survival was inactive: 53%. With `CCOC(=O)c1cc2c(=O)n3ccccc3nc2n(CC2CCCO2)c1=NC(=O)c1ccccc1F` (stereo not drawn) the survival was inactive: 74%. With `COc1ccc(CNC(=O)C(C)n2nc(C)c3sc4ccccc4c3c2=O)cc1OC` (stereo not drawn) the survival was inactive: 89%. For `Cc1ccccc1NC(=O)CSc1nnc(-c2cccc(Cl)c2)o1`, the survival was inactive: 82%. In the case of `Cc1nn2c(=O)cc(COC(=O)c3ccc(NC(=O)c4ccc(C(C)(C)C)cc4)cc3)nc2s1`, the survival is reported as inactive: 74%. With `Cc1csc2nc(-c3cccc(NC(=O)c4ccccc4F)c3)cn12` the survival was inactive: 134%. `CCOc1ccc(NC(=O)c2noc3c2CSc2ccccc2-3)cc1` was tested, and the survival was inactive: 84%. For `O=C(NCc1ccc(Cl)cc1)C1CCN(S(=O)(=O)c2ccc3c(c2)CCCN3C(=O)C2CCC2)CC1`, the survival was inactive: 73%. For `O=C(CSc1nc(O)c(C/C=C/c2ccccc2)c(=O)[nH]1)Nc1cccc(F)c1`, the survival was inactive: 65%. With `CC(C)(C)c1ccc(S(=O)(=O)N2CCN(C(=O)c3cc(-c4ccc(Br)cc4)n[nH]3)CC2)cc1` the survival was inactive: 131%. `O=C(Nc1ccc2oc(-c3cc(Br)ccc3Cl)nc2c1)c1ccc2ccccc2c1` was tested, and the survival was inactive: 73%. With `COc1cccc(CNC(=O)c2nnc(Cc3ccc(Cl)cc3)o2)c1` the survival was inactive: 79%. For `CCOCCc1nn2c(=O)cc(COC(=O)c3ccco3)nc2s1`, the survival was inactive: 85%. For `COc1cc(-c2noc(-c3ccc(N4CCCCC4)c([N+](=O)[O-])c3)n2)cc(OC)c1OC`, the survival was inactive: 86%. `Cc1ccc(NC(=O)NC2CCN(C(=O)N3CCOCC3)CC2)cc1` was tested, and the survival was inactive: 102%. In the case of `COc1ccc(-c2cc(C)no2)cc1S(=O)(=O)N1CC(C)Oc2ccccc21` (stereo not drawn), the survival is reported as active: -6%. In the case of `CCN1CCN(CCCNC(=O)c2ccc3c(c2)sc2nc(-c4ccc(C)cc4)cn23)CC1`, the survival is reported as inactive: 29%. In the case of `O=C(CSc1ccc(-c2cccs2)nn1)Nc1cccc(F)c1`, the survival is reported as inactive: 107%. With `COc1cccc(N2CCN(C(=O)Cn3ncc4c(=O)oc5ccccc5c43)CC2)c1` the survival was inactive: 86%. For `O=C1CC(c2cccc(F)c2)c2c(n3ncnc3[nH]c2=O)N1` (stereo not drawn), the survival was inactive: 77%. For `CCOC(=O)Cn1c(=O)n(C2CCCCC2)c2nc(-c3cccc(C)c3)nc(C(N)=O)c21`, the survival was inactive: 89%. `COc1ccc(-n2c(SCC(=O)NCc3ccccc3)nc3n[nH]c(C)c3c2=N)cc1` was tested, and the survival was inactive: 74%. `CCCn1c(=O)c2sccc2n2c(CCCC(=O)Nc3ccccc3F)nnc12` was tested, and the survival was inactive: 95%. With `CN(C(=O)c1oc(=O)c2ccccc2c1-c1ccccc1)c1cccc(Cl)c1` the survival was inactive: 30%. With `COc1cccc(CN2CCc3nc(N4CCN(C)CC4)ncc3C2)c1` the survival was inactive: 71%. With `CCOc1ccc(CCNC(=O)Cc2ccc(NC(=O)N3CCSc4ncccc43)cc2)cc1` the survival was inactive: 80%. `COc1ccc(-n2nc(C(=O)N3CCN(c4cccc(C(F)(F)F)c4)CC3)c3c4ccccc4n(C)c3c2=O)cc1Cl` was tested, and the survival was inactive: 128%. With `Cc1oc2ncn(C)c(=O)c2c1C(=O)NCc1ccccc1` the survival was inactive: 57%. With `O=C(O)c1coc2ccccc12` the survival was inactive: 124%. With `COc1cccc(N2CCN(C(=O)Cn3ncc4c5ccccc5n(C)c4c3=O)CC2)c1` the survival was inactive: 76%. For `Cc1cccc(-c2noc(-c3cc(-c4ccc(F)cc4)n[nH]3)n2)c1`, the survival was inactive: 128%. For `COc1cc(OC)cc(C(=O)Nc2nc(-c3nnn(-c4ccc(F)c(Cl)c4)c3C)ns2)c1`, the survival was inactive: 73%. With `CCN1CCN(C(=O)c2cccc(F)c2F)CC1` the survival was inactive: 114%. With `O=C(CSc1nc(-c2ccco2)nc2cc(=O)[nH]n12)Nc1ccccc1F` the survival was inactive: 63%. `CCN1C(=O)/C(=c2\s/c(=C3\Sc4ccc(OC)cc4N3C)c(=O)n2Cc2ccccc2)N(C)C1=S` was tested, and the survival was inactive: 100%. For `O=C(c1ccccc1Cl)N1CCN(CCc2ccccn2)CC1`, the survival was inactive: 85%. In the case of `COc1cccc(C(=O)Nc2ccccc2-c2nnc(-c3ccc(C(C)(C)C)cc3)o2)c1`, the survival is reported as inactive: 71%. `COc1ccc2cc3cc(C(=O)Nc4ccccc4C)oc3nc2c1` was tested, and the survival was inactive: 117%. `COc1ccc(NC(=O)CSc2nc(C)cc(C)c2C(=O)Nc2cccc(C)c2)cc1` was tested, and the survival was inactive: 106%. In the case of `C[C@@H](NC(=O)CN(c1ccccc1)S(=O)(=O)N(C)C)c1ccccc1`, the survival is reported as inactive: 82%. For `CCCOC(=O)c1ccc(Nc2nc3ccccc3nc2-n2nc(C)cc2C)cc1`, the survival was inactive: 32%. With `Cc1cccc(C)c1NC(=O)NC1(C(=O)N2CCCCC2)CCCCC1` the survival was inactive: 102%. For `CCOc1ccc(-c2cc(CCCC(=O)NCCc3ccc(OCC)c(OCC)c3)no2)cc1`, the survival was inactive: 83%. `Cc1ccc(NC(=O)Nc2ccc3nc(N4CCN(C)CC4)cc(C)c3c2)cc1C` was tested, and the survival was inactive: 73%. `CCCCCCc1nnc(NC(=O)CC)s1` was tested, and the survival was inactive: 104%. With `Cc1ccccc1NC(=O)c1ccc(F)c(S(=O)(=O)NC2CCCC2)c1` the survival was inactive: 70%. In the case of `CCN1CCN(C(=O)c2ccc3c(c2)N(Cc2ccccc2F)C(=O)c2ccccc2S3(=O)=O)CC1`, the survival is reported as inactive: 90%. In the case of `COc1cc(NS(=O)(=O)c2ccc(NC(=O)c3ccc(C(C)=O)cc3)cc2)nc(OC)n1`, the survival is reported as inactive: 77%. With `COc1ccc(NC(=O)c2sc3nc4c(cc3c2N)CCCCCC4)cc1Cl` the survival was inactive: 63%. For `CCOC(=O)c1cccc(NC(=O)N2CC(CC)Oc3ccccc32)c1` (stereo not drawn), the survival was inactive: 79%. For `Cc1ccc(N2CCN(C(=O)c3c(C)oc4nc(C)nc(N5CCCC5)c34)CC2)c(C)c1`, the survival was inactive: 81%. `Cc1cccc(-n2ncc(C(=O)NCc3ccco3)c2C2CCN(C(=O)OC(C)(C)C)CC2)c1` was tested, and the survival was inactive: 81%. For `Cc1cccc(CNC(=O)CCCN2C(=O)COc3ccc(C)cc32)c1`, the survival was inactive: 110%. With `CCn1c(=O)c2cc(C(=O)N(C)c3cc(Cl)c(OC)cc3OC)sc2c2ccccc21` the survival was inactive: 80%. `Cc1nc2cccnc2n1C1CCN(S(=O)(=O)c2ccc(C(C)C)cc2)CC1` was tested, and the survival was inactive: 127%. With `CCc1nn(CC(=O)NCCN(CC)CC)c(=O)c2cc3occc3n12` the survival was inactive: 125%.
